Source: the supplement of paper PMC8728848
Some of the results follow.

Key:
Assay in all cases: glycan array binding signal (z-score within array); higher = stronger binding
Conditions in all cases: glycan notation: IUPAC condensed, linker removed
[1] = biological target: Neu5Ac(a2-6)GlcNAc(b1-4)GlcNAc(b1-4)GlcNAc
How it was run: (§1)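 The binding signal is a Z-score computed within each array. Data were drawn from 3228 arrays in the Consortium for Functional Glycomics database, restricted to those with a known protein sequence. Scores were averaged over arrays of the same protein sequence at different concentrations or buffers, and over linkers, and negative values can be taken as non-binding.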

Neu5Ac(a2-8)Neu5Ac = biological target: Neu5Ac(a2-8)Neu5Ac
How it was run: as §1

[2] = biological target: Neu5Ac(a2-8)Neu5Ac(a2-3)Gal(b1-3)GalNAc(b1-4)[Neu5Ac(a2-3)]Gal(b1-4)Glc
How it was run: as §1

[3] = biological target: Neu5Ac(a2-8)Neu5Ac(a2-3)Gal(b1-3)GalNAc(b1-4)[Neu5Ac(a2-8)Neu5Ac(a2-3)]Gal(b1-4)Glc
How it was run: as §1

[4] = biological target: Neu5Ac(a2-8)Neu5Ac(a2-3)Gal(b1-4)Glc
How it was run: as §1

[5] = biological target: Neu5Ac(a2-8)Neu5Ac(a2-3)Gal(b1-4)GlcNAc
How it was run: as §1

[6] = biological target: Neu5Ac(a2-8)Neu5Ac(a2-3)[Gal(b1-3)GalNAc(b1-4)]Gal(b1-4)Glc
How it was run: as §1

[7] = biological target: Neu5Ac(a2-8)Neu5Ac(a2-3)[GalNAc(b1-4)]Gal(b1-4)Glc
How it was run: as §1

[8] = biological target: Neu5Ac(a2-8)Neu5Ac(a2-8)Neu5Ac
How it was run: as §1

[9] = biological target: Neu5Ac(a2-8)Neu5Ac(a2-8)Neu5Ac(a2-3)Gal(b1-4)Glc
How it was run: as §1

[10] = biological target: Neu5Ac(a2-8)Neu5Ac(a2-8)Neu5Ac(a2-3)[Gal(b1-3)GalNAc(b1-4)]Gal(b1-4)Glc
How it was run: as §1

[11] = biological target: Neu5Ac(a2-8)Neu5Ac(a2-8)Neu5Ac(a2-3)[GalNAc(b1-4)]Gal(b1-4)Glc
How it was run: as §1

[12] = biological target: Neu5Ac(a2-8)Neu5Ac(a2-8)Neu5Ac(a2-8)Neu5Ac(a2-3)[GalNAc(b1-4)]Gal(b1-4)Glc
How it was run: as §1

[13] = biological target: Neu5Ac(a2-8)Neu5Gc(a2-3)Gal(b1-4)GlcNAc
How it was run: as §1

[14] = biological target: Neu5Ac(b2-6)Gal(b1-4)GlcNAc
How it was run: as §1

Neu5Ac(b2-6)GalNAc = biological target: Neu5Ac(b2-6)GalNAc
How it was run: as §1

[15] = biological target: Neu5Ac9Ac(a2-3)Gal(b1-3)GlcNAc
How it was run: as §1

[16] = biological target: Neu5Ac9Ac(a2-3)Gal(b1-4)GlcNAc
How it was run: as §1

[17] = biological target: Neu5Ac9Ac(a2-6)Gal(b1-4)GlcNAc
How it was run: as §1

[18] = biological target: Neu5Gc(a2-3)Gal(b1-3)GlcNAc
How it was run: as §1

[19] = biological target: Neu5Gc(a2-3)Gal(b1-3)[Fuc(a1-4)]GlcNAc
How it was run: as §1

Neu5Gc(a2-3)Gal(b1-4)Glc = biological target: Neu5Gc(a2-3)Gal(b1-4)Glc
How it was run: as §1

[20] = biological target: Neu5Gc(a2-3)Gal(b1-4)GlcNAc
How it was run: as §1

[21] = biological target: Neu5Gc(a2-3)Gal(b1-4)GlcNAc(b1-3)Gal(b1-4)GlcNAc(b1-2)Man(a1-3)[Neu5Gc(a2-3)Gal(b1-4)GlcNAc(b1-3)Gal(b1-4)GlcNAc(b1-2)Man(a1-6)]Man(b1-4)GlcNAc(b1-4)GlcNAc
How it was run: as §1

[22] = biological target: Neu5Gc(a2-3)Gal(b1-4)[Fuc(a1-3)]GlcNAc
How it was run: as §1

[23] = biological target: Neu5Gc(a2-3)Gal(b1-4)[Fuc(a1-4)]GlcNAc
How it was run: as §1

[24] = biological target: Neu5Gc(a2-6)Gal(b1-4)GlcNAc
How it was run: as §1

Neu5Gc(a2-6)GalNAc = biological target: Neu5Gc(a2-6)GalNAc
How it was run: as §1

[25] = biological target: Neu5Gc(a2-8)Neu5Ac(a2-3)Gal(b1-4)GlcNAc
How it was run: as §1

[26] = biological target: Neu5Gc(a2-8)Neu5Gc(a2-3)Gal(b1-4)GlcNAc
How it was run: as §1

[27] = biological target: Neu5Gc(a2-8)Neu5Gc(a2-3)Gal(b1-4)GlcNAc(b1-3)Gal(b1-4)GlcNAc
How it was run: as §1

[28] = biological target: Neu5Gc(a2-8)Neu5Gc(a2-6)Gal(b1-4)GlcNAc
How it was run: as §1

[29] = biological target: Neu5Gc(b2-6)Gal(b1-4)GlcNAc
How it was run: as §1

B1: Epa7 (Candida glabrata), Q6DTM6_CANGB (protein)
chain: MGSSHHHHHHSSGLVPRGSHMKDDYSSFLSNNNLGWTDPTEFPLGCSPNVTTPKNGLSMELYSYDLRKNGSYPCWDAAYLDPNYPRTGYKSHRLLAKVDGVTGNINFYYHATKGCTPEIDHLPASYNYPKPLTMTNFTMLLYGYFKPKVTGYHTFTISADDLLFVNFGAGNAFDCCKRESSADDFGNYQAYAVWGSQTAKDDLTVHLDAGLYYPIRIFFNNREYDAELSLTLKTESDSNPVIDFSDYFYSFDDTKDGCPGLVSYDTS
In the case of B1, the “glycan array binding signal (z-score)” value [1] is reported as -0.237, the “glycan array binding signal (z-score)” value (Neu5Ac(a2-8)Neu5Ac) is reported as -0.248 and the “glycan array binding signal (z-score)” value [2] is reported as -0.079. For the same binder, the “glycan array binding signal (z-score)” value [3] was -0.167, the “glycan array binding signal (z-score)” value [4] was -0.257 and the “glycan array binding signal (z-score)” value [5] was -0.226. The “glycan array binding signal (z-score)” value [6] was 2.79, the “glycan array binding signal (z-score)” value [7] was -0.254 and the “glycan array binding signal (z-score)” value [8] was -0.26. For the same binder, the “glycan array binding signal (z-score)” value [9] was -0.259, the “glycan array binding signal (z-score)” value [10] was 0.014 and the “glycan array binding signal (z-score)” value [11] was -0.258. For the same binder, the “glycan array binding signal (z-score)” value [12] was -0.261, the “glycan array binding signal (z-score)” value [13] was -0.241 and the “glycan array binding signal (z-score)” value [14] was -0.236. The “glycan array binding signal (z-score)” value (Neu5Ac(b2-6)GalNAc) was -0.258, the “glycan array binding signal (z-score)” value [15] was -0.233 and the “glycan array binding signal (z-score)” value [16] was -0.239. For the same binder, the “glycan array binding signal (z-score)” value [17] was -0.255, the “glycan array binding signal (z-score)” value [18] was -0.251 and the “glycan array binding signal (z-score)” value [19] was -0.15. For the same binder, the “glycan array binding signal (z-score)” value (Neu5Gc(a2-3)Gal(b1-4)Glc) was -0.256, the “glycan array binding signal (z-score)” value [20] was -0.262 and the “glycan array binding signal (z-score)” value [21] was -0.231. The “glycan array binding signal (z-score)” value [22] was -0.228, the “glycan array binding signal (z-score)” value [23] was -0.275 and the “glycan array binding signal (z-score)” value [24] was -0.253. For the same binder, the “glycan array binding signal (z-score)” value (Neu5Gc(a2-6)GalNAc) was -0.256, the “glycan array binding signal (z-score)” value [25] was -0.241 and the “glycan array binding signal (z-score)” value [26] was -0.237. For the same binder, the “glycan array binding signal (z-score)” value [27] was -0.243, the “glycan array binding signal (z-score)” value [28] was -0.222 and the “glycan array binding signal (z-score)” value [29] was -0.224.
